# Test results as given in PubChem BioAssay AID651820 (National Center for Advancing Translational Sciences (NCATS), 2012).
# The whole screen tested about 340,000 compounds, of which about 12,000 (3.5%) were called active. This list was built around the results that the source calls inconclusive (neither active nor inactive); the mix of calls is not that of the screen. The call rests on the fitted dose curve; in most records, active means well fitted inhibition curve with a large enough effect; inconclusive means small, poorly fitted or top-dose-only effect, or another doubt; inactive means no such curve, though single readings can be large or run the other way. Potencies of inconclusive entries are left out as doubtful fits.
# Assay: qHTS Assay for Inhibitors of Hepatitis C Virus (HCV)
# Settings: Huh7.5.1 HCVcc-Cre (HCVcc is cell-culture hepatitis C virus) infection, luciferase reporter, 44 h; activity change, negative = inhibition: at 41.8 µM (top of the series) unless noted
# Method in brief: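 Cells seeded at 1,000/well and cultured 4 h, then compounds added followed by HCVcc-Cre virus (~0.5 moi). After 44 h further culture, luciferase substrate was added, plates held 15 min at room temperature, and luminescence read for 15 sec.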
# On the % scale 0 is the no-effect control and ±100 the full control effect; potency means the concentration at half of the fitted maximal effect; tags describe the fitted curve by direction and shape.
Structure (SMILES),Potency,"activity change, negative = inhibition"
O=C(Nc1cccc(S(=O)(=O)NC2=NCCC2)c1)c1cc(-c2ccco2)nc2ccccc12,"inconclusive [inhibitor, partial curve, poor fit]",–
COc1ccccc1-c1c(-c2ccc(OCC(=O)NN)cc2O)n[nH]c1C(F)(F)F,"inconclusive [inhibitor, single point]",–
COc1ccc(Nc2ncnc3sc(-c4ccccc4)cc23)cc1OC,"inconclusive [inhibitor, single point]",–
CCOC(=O)Cn1c2c(c(=N)c3c1CCC3)CCC2,–,inactive: -15.2%
COc1ccc2[nH]cc(/C=C/c3cc[n+](C)cc3)c2c1,active: 7.94 µM,–
S=C(NCc1cccs1)Nc1cc(Cl)cc(Cl)c1,"inconclusive [inhibitor, single point]",–
C=CCCC1CN(CCCC)S(=O)(=O)c2c(F)cccc2O1 (centres undefined),–,inactive: -7.8%
COc1ccc(C(=O)c2cc([N+](=O)[O-])ccc2N2CCOCC2)cc1,"inconclusive [inhibitor, partial curve]",–
CC(=O)c1cccc(OC(=O)Oc2cccc(C(C)=O)c2)c1,"inconclusive [inhibitor, full curve, poor fit]",–
CCCc1nc2ccccc2c(C(=O)N(CC)CC(=O)NCc2cccs2)c1CC,"inconclusive [inhibitor, full curve]",–
Cc1cc(C)c2cc(CN(Cc3ccco3)C(=O)NCc3ccccc3)c(=O)[nH]c2c1,"inconclusive [inhibitor, single point]",–
Cc1ccc(NC(=O)CN(C)C(=O)C(C)N2CCN(Cc3ccccc3C)CC2)cc1 (centres undefined),"inconclusive [inhibitor, single point]",–
O=C(CSc1nnc(-c2ccncc2)n1Cc1ccco1)N1c2ccccc2Sc2ccc(Cl)cc21,"inconclusive [inhibitor, single point]",–
C=CCNC(=O)/C(=C/c1cccc([N+](=O)[O-])c1)NC(=O)c1ccco1,–,inactive: 15.6%
CCOc1ccc(Oc2ccc(C(F)(F)F)cc2N)cc1,"inconclusive [inhibitor, full curve]",–
O=S(=O)(c1ccccc1)C1(C2CC(c3ccccc3)=NO2)CC(O)C1 (centres undefined),–,inactive: -14%
COc1ccc(NC(=O)Nc2ccc(C(C)C)cc2)cc1,–,inactive: -21.5%
COc1cc(NC(=O)CN2CCN(CC(=O)Nc3ccccc3OC)CC2)cc(OC)c1,–,inactive: 0.297%
CC(C(=O)N1CCc2ccccc21)N(C)CC(=O)Nc1ccc(F)cc1 (centres undefined),"inconclusive [inhibitor, partial curve, poor fit]",–
O=C(Nc1cc(Cl)ccc1O)c1cc2n(n1)C(C(F)(F)F)CC(c1ccc3c(c1)OCO3)N2 (centres undefined),"inconclusive [inhibitor, partial curve]",–
CC(CCc1ccccc1)OS(N)(=O)=O (centres undefined),–,inactive: 24.1%
COc1ccc(C2=NN(C(=O)CSc3nc(=O)n4cc(C)ccc4n3)C(c3ccc(C)cc3)C2)cc1 (centres undefined),"inconclusive [inhibitor, single point]",–
CCCC(=O)Nc1nc(-c2ccc3c(c2)OCCO3)cs1,"inconclusive [inhibitor, single point]",–

Structure (SMILES),Potency,"activity change, negative = inhibition"
CCCC(c1nnnn1C1CCCCC1)N1CCN(C(=O)c2ccco2)CC1 (centres undefined),–,inactive: -22.3%
COc1ccc(/C(N)=N/OC(=O)c2cccc([N+](=O)[O-])c2C)cc1,"inconclusive [inhibitor, single point]",–
Nc1ccccc1NC1CCCCC1,"inconclusive [inhibitor, partial curve]",–
COc1ccc(OC)c(NS(=O)(=O)c2ccc(N3CCCC3=O)cc2)c1,–,inactive: -8.06%
COc1ccc(-c2noc(CCC(=O)NCCCN3CCN(c4ccc(F)cc4)CC3)n2)cc1,active: 22.4 µM,–
Cc1ccccc1-n1c(SCC(=O)c2c(N)n(C)c(=O)n(C)c2=O)nc2sc3c(c2c1=O)CCCC3,"inconclusive [inhibitor, single point]",–
COc1cc(/C=C2\SC(=S)NC2=O)ccc1OS(=O)(=O)c1ccccc1,–,inactive: 7.02%
Cc1ccc(N2C(=O)N(CC(=O)NCc3ccc(Cl)cc3)C(=O)C2C)cc1 (centres undefined),"inconclusive [inhibitor, single point]",–
CC(C)N(Cc1nccn1C)C(=O)c1cc(COc2cccc(C(F)(F)F)c2)on1,"inconclusive [inhibitor, single point]",–
S=C(NCc1ccncc1)Nc1ccc(Br)cc1Cl,"inconclusive [inhibitor, partial curve]",–
COCc1cc(CN2CCN(CCc3ccccc3)C(CCO)C2)ccc1OC (centres undefined),–,inactive: -0.0054%
CCC(C(=O)NCCc1ccc(C)cc1)n1nc(C)c2c(C)n(-c3ccccc3)nc2c1=O (centres undefined),–,inactive: -6.64%
Cc1ccc2c(c1)C1CN(C)CCC1N2C(=O)c1ccccc1NS(=O)(=O)c1ccc(F)cc1C (centres undefined),–,inactive: 6.03%
CNC(=O)O/N=C(\N)Cc1csc2ccc(Cl)cc12,"inconclusive [inhibitor, single point]",–
Cc1cc(C(=O)OCC(=O)N2CCN(c3ccccc3)CC2)c2ccccc2n1,"inconclusive [inhibitor, single point]",–
COc1ccc(COc2cccc3ccc(C)nc23)cc1F,"inconclusive [inhibitor, single point]",–
CC1CCN(c2ncnc3c2cnn3Cc2ccc(Cl)cc2)CC1,"inconclusive [inhibitor, single point]",–
O=C(OCCCOC(=O)c1ccc(Br)o1)c1ccc(Br)o1,–,inactive: 8.54%
CCOC(=O)C1(Cc2ccc(Cl)cc2)CCN(C(=O)c2sc(C)nc2C)CC1,active: 11.2 µM,–
CCN1C(=O)/C(=C2/Sc3ccccc3N2CC)S/C1=N\c1ncn[nH]1,"inconclusive [inhibitor, partial curve]",–
O=C(CSc1n[nH]c(-c2ccncc2)n1)c1ccccc1,"inconclusive [inhibitor, single point]",–
CCS(=O)(=O)c1nc(S(=O)(=O)c2ccc(C)cc2)c(N2CCC(C)CC2)s1,"inconclusive [inhibitor, partial curve]",–
Cc1ccc(SCc2cn3c(C)cc(C)nc3n2)cc1,–,inactive: 21.9%

Structure (SMILES),Potency,"activity change, negative = inhibition"
Cc1cc(C[n+]2cc(Br)ccc2N)c2ncccc2c1,"inconclusive [inhibitor, single point]",–
CCCCN(CCCC)CCNC(=O)CSCc1ccc(C)cc1,–,inactive: -9.21%
O=C(N1CCC(n2nc(-c3ccccc3)oc2=O)CC1)C1(c2ccc(Cl)cc2)CC1,"inconclusive [inhibitor, partial curve]",–
CCCn1c(C)cc(C(=O)COC(=O)c2c(C)nn(-c3ccccc3)c2C)c1C,"inconclusive [inhibitor, partial curve]",–
COc1ccc(OC)c([C@@H](O)[C@H](C)NC(C)(C)C)c1,inactive,–
CCOC(=O)[C@H]1[C@H]2COc3ccc(Br)cc3[C@@H]2N2C(=O)c3ccc(F)cc3NC(=O)[C@@]12C,"inconclusive [inhibitor, single point]",–
CCCCc1nc2cc(C(=O)N3CCCC(COC)C3)ccc2o1 (centres undefined),–,inactive: 8.22%
CCCn1cc(S(=O)(=O)c2ccccc2)c(=O)c2cc(CC)ccc21,–,inactive: -29%
Cc1ccc(CNC(=O)CCn2cc(-c3ccc(F)cc3)nc2-c2ccncc2)cc1,"inconclusive [inhibitor, single point]",–
COc1cccc(-c2cc(C(=O)NCC3CCCO3)c3cc(C)cc(C)c3n2)c1 (centres undefined),"inconclusive [inhibitor, single point]",–
CC(=O)Nc1ccc2c(c1)C(=Nc1cccc(C)c1)c1ccccc1-2,"inconclusive [inhibitor, single point]",–
CCC(CC)C(=O)c1c[nH]c(C(=O)NCc2ccco2)c1,–,inactive: 6.18%
COc1ccc(C2/C=C\CN(C(=O)Nc3ccccc3)CC(=O)N2Cc2ccc(F)cc2)cc1 (centres undefined),"inconclusive [inhibitor, single point]",–
c1ccc(-c2nn3nnnc3c3ccccc23)cc1,"inconclusive [inhibitor, single point]",–
C(=N/Nc1nc(-c2ccccc2)cc(-c2ccccc2)n1)/c1cccnc1,"inconclusive [inhibitor, partial curve]",–
COC(=O)[C@H](Cc1ccc(O)cc1)NC(=O)Cn1cnc2c(OCc3ccccc3)ncnc21,"inconclusive [inhibitor, full curve, poor fit]",–
COc1ccc(-c2noc(N3CCC(C(=O)NCCCN4CCCCC4)CC3)n2)cc1,"inconclusive [inhibitor, single point]",–
Cn1cc(C(=O)OCC(=O)Nc2ccccc2Cl)c2ccccc21,"inconclusive [inhibitor, single point]",–
CC(C)c1ccc(CN2CCN(S(=O)(=O)c3ccc(Cl)s3)CC2)cc1,"inconclusive [inhibitor, single point]",–
CC(=O)c1ccccc1NC(=O)COc1ccc(N(C)S(=O)(=O)c2ccc(C)c(C)c2)cc1,"inconclusive [inhibitor, full curve]",–
C[C@]12c3[nH]c4ccccc4c3CCN1C(=O)C(CC(=O)NCC13CC4CC(CC(C4)C1)C3)C[C@@H]2C(=O)N1CCOCC1 (some centres undefined),"inconclusive [inhibitor, single point]",–
Cc1ccccc1C(=O)N1CCC(C(=O)Nc2ccc(S(=O)(=O)N3CCOCC3)cc2)CC1,–,inactive: 2.75%
COc1ccc(C(=O)Nc2ccccc2)cc1S(=O)(=O)Nc1cc(C)on1,–,inactive: 11.9%
